The subject of the data set is ATP. The data set is described as follows: switch fluorescence ratio, 500 uM ATP over buffer (Cy3 cluster intensity, sum of 5 cycles each) (fold (ratio)); higher = stronger signal-on switching upon ATP binding; sequences stand for … in TCGTCGGCAGCGTCAGATGTGTATAAGAGACAGTTTTTTTTTTTTTTTTTTTTTTTTT…TC. The following applies: aptamer strand: ATP DNA aptamer (quencher-CACCTGGGGGAGTATTGCGGAGGAAGG + anchor), 100 nM annealed; ATP concentration: 500 uM; one replicate. In outline:
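Five buffer/ATP imaging cycles were run on Cy3-labelled switching-strand clusters on a modified Illumina MiSeq flow-cell, with NaOH stripping and re-annealing between cycles. In each cycle, clusters annealed to 100 nM quencher-labelled ATP aptamer were imaged in selection buffer, then after 15 min with 500 uM ATP at 22 °C. Per cluster, the fluorescence ratio is summed target-cycle over summed buffer-cycle Cy3 intensity, averaged per switch-domain sequence. Only clusters within 100-1000 RFU were kept.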

Values marked as one replicate rest on one cluster of the flow cell; about a third of the high ones do not repeat.
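Also: ATP exposure 15 min at 22 °C before imaging.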

Consider TTCCTATGCG, for which the switch fluorescence ratio came out at 1.11.

With GAAAAGGATG, the switch fluorescence ratio came out at 1.

Take GTGAGTAATA: the switch fluorescence ratio stood at 1.08.

Turning to CCTGATATGG, the switch fluorescence ratio is 1.04.

Regarding ACGCTAAGGC, the switch fluorescence ratio came to 1.31.

Turning to TTTGGCTGAC, the switch fluorescence ratio was 1.13.

GAGTAGGCGT: the switch fluorescence ratio came to 1.03.

As to CAACTGAAAG, the switch fluorescence ratio was 1.01.

Consider ATCAGAGAAG, for which the switch fluorescence ratio was 0.995.

Turning to ACCTCGTCA, the switch fluorescence ratio was 1.06.

Consider AATACGACCA, for which the switch fluorescence ratio was determined as 2.02.

In the case of TACCCCGAAC, the switch fluorescence ratio stood at 1.23.

As to TTCTGCGGAC, the switch fluorescence ratio amounted to 3.25.

Turning to CACCTAATTG, the switch fluorescence ratio was found to be 1.02.

As to TTCACGAACG, the switch fluorescence ratio amounted to 1.36.

Regarding TTCTTAACG, the switch fluorescence ratio was determined as 0.994.

Turning to TCTGTGAGGA, the switch fluorescence ratio was 1.02.

For the sequence TGCCGGGCGA, the switch fluorescence ratio came to 1.04.

As to TTCCGTATAT, the switch fluorescence ratio worked out at 1.57.

For TTACTCTCGG, the switch fluorescence ratio was determined as 0.998.

TATGATCGTG: the switch fluorescence ratio worked out at 1.

As to AGGATATTTT, the switch fluorescence ratio was 0.934.

In the case of TCACTACGTC, the switch fluorescence ratio was determined as 1.04.

Consider GAGGCCGACT, for which the switch fluorescence ratio is 0.99.

On to GACGGCCCCC, for which the switch fluorescence ratio worked out at 1.04.

The values are drawn from the supplement of paper PMC10126150.
